This passage reports self-cleavage results from the RNAGym collection of RNA variant scans (doi:10.7554/elife.90254).

Read counts are not given, so values of variants with three or more changes are uncertain.

B1: LINE1-full (parent)
chain: UACGUAGGUGGUUUUCCCCUGAUAGUGCUAAGGGGGCCUGGAAGUUUGGACUGGGCAGAGCUCAACACAGCGUGGCAAAGUGGCUGUGGCUAGACUGCCUCUCUGGAUUCCUCGUCACUCAGCAGGGCAUCUCUGAGAGAAAUGCC

In this data set the parent is B1. In words: self-cleavage, relative activity (ratio to wild type); higher = more cleavage; in vitro, sequencing; the parent is a self-cleaving ribozyme.
For U14C A79G U108C, the self-cleavage was found to be 0.95.
Take U14C U23C U29C U108C: the self-cleavage turned out to be 0.
Turning to U14C C95U U130C, the self-cleavage is 0.29.
For U14C U15C G36A A57G U109C A140G A142G, the self-cleavage was 0.42.
On to U14C U20C U39A A77G U115C, for which the self-cleavage was found to be 2.76.
Turning to U14C U15C U130A, the self-cleavage turned out to be 1.39.
As for U14C U29C A42G, the self-cleavage was 0.27.
U14C G54U A64G A65G A79U: the self-cleavage worked out at 0.
The result for U14C C63U A69U U119C reads 0.05.
Take U14C U39G U81G: the self-cleavage stood at 1.45.
In the case of U14C U39C U47C A136G, the self-cleavage stood at 0.81.
For U14C U23C U62C A78G, the self-cleavage came to 0.13.
Consider U14C G137A A142G, for which the self-cleavage worked out at 1.13.
Turning to U14C C95U A117G, the self-cleavage was found to be 0.13.
The result for U14C U46A U102C reads 1.43.
To U14C A77U A136G C146U belongs 1.06; to U14C A67G A117U, 0.33.
U14C A64G G88A A138U: the self-cleavage is 0.08.
To U14C G86A U115A U143A belongs 0.04.
In the case of U14C U29C A43U A78U U81C A92U, the self-cleavage came to 1.17.
U14C C123U A138U: the self-cleavage is 2.21.
For the variant U14C A59U A65U G74A U81G, the self-cleavage turned out to be 0.08.
Regarding U14C U39C G40A A140G, the self-cleavage turned out to be 0.5.
Regarding U14C A77G C98U A138G, the self-cleavage is 1.1.
To U14C G82U U104C belongs 1.45; to U14C A94G C116U, 0.13.
For the variant U14C U15C U26C C76A A138G, the self-cleavage worked out at 1.6.
Regarding U14C A67U A136G, the self-cleavage was 0.16.
To U14C U29C A31U A65U A77G A117U U134C A136U belongs 0.27; to U14C A77G U134C, 1.36.
The result for U14C U20C U104G A136G reads 2.04.
As to U14C A59G U132A, the self-cleavage was 0.25.
Regarding U14C A78G U102A, the self-cleavage stood at 1.46.
In the case of U14C C95U A140G, the self-cleavage was 0.23.
Take U14C U29C A78G U87C C120A: the self-cleavage was determined as 0.
U14C A69G U81G A94C: the self-cleavage was 0.44.
With U14C U23C U39C A57G, the self-cleavage stood at 0.
To U14C C113U A142U belongs 1.04; to U14C U20A A30G A67U A79U, 0.77.
With U14C U39C U85C A140U, the self-cleavage stood at 0.
Regarding U14C G32A U130C G139A, the self-cleavage was found to be 1.37.
To U14C A77G U104C belongs 1.72; to U14C U46A U47C A140G, 3.
To U14C C28U A67G U115C belongs 0.2; to U14C U26C A43G, 0.97.
With U14C G25A G86A A117G, the self-cleavage amounted to 0.07.
With U14C C99U U112C, the self-cleavage is 0.55.
Regarding U14C U15C A31C U62A U115A U130C, the self-cleavage is 0.
To U14C U20C C90A belongs 0.13; to U14C A77U U81C A138U, 0.43.
Regarding U14C G32A U47A A69G A77U A92C, the self-cleavage turned out to be 0.07.
For U14C G49A C56A, the self-cleavage was 0.09.
The result for U14C A129U U132C A136G reads 1.84; that for U14C A121U A142G, 0.97; that for U14C G32A U46C A79G C113A, 2.19.
To U14C A78G C103A belongs 0.99.
Turning to U14C U39A A69G U115A, the self-cleavage turned out to be 0.54.
In the case of U14C A67G A129U A140G, the self-cleavage turned out to be 0.72.
To U14C A67G U115A U132C C133U belongs 0.43.
Consider U14C A79G A129U, for which the self-cleavage was 0.93.
As for U14C U39A U73C, the self-cleavage is 2.22.
Turning to U14C U20C A136G U143C, the self-cleavage was found to be 0.77.
In the case of U14C U26C U62A U73C, the self-cleavage worked out at 0.09.
As to U14C A94U A141G, the self-cleavage stood at 0.47.
U14C A117G U134C: the self-cleavage is 1.56.
For U14C U15C C51A U52A, the self-cleavage was found to be 1.19.
As to U14C U15C A77U C113A, the self-cleavage is 1.57.
In the case of U14C A79G U130C, the self-cleavage amounted to 0.
For U14C G25U A67U A79G C101U, the self-cleavage came to 0.15.
The result for U14C A77G C99G U115C A121C reads 0.92.
In the case of U14C U29A G36A A64G U109A, the self-cleavage was found to be 0.21.
To U14C C16A U39A A43G G72U U100C A129U belongs 0.67; to U14C U20C A59U A79U, 1.11; to U14C A79G G125A A140G, 1.55.
In the case of U14C U39C C99U A141G, the self-cleavage is 0.65.
As to U14C G70A U119A A124G, the self-cleavage was determined as 0.
In the case of U14C C51U G127U, the self-cleavage turned out to be 2.03.
For U14C A65G G70C, the self-cleavage was 0.12.
As for U14C U45A G49A C95A, the self-cleavage amounted to 0.06.
For the variant U14C G35A C111A U115C, the self-cleavage is 1.62.
To U14C A64G A94G belongs 0.
For U14C G88A U112C U119C, the self-cleavage was determined as 0.08.
Turning to U14C U15C U39C U87C, the self-cleavage came to 0.42.
With U14C G25U U108C C116U U134A, the self-cleavage is 1.2.
The result for U14C A79G A94G reads 0.46; that for U14C G54A U143A, 0.54; that for U14C C76A U91C G114A, 0.6.
The result for U14C G83A A142G reads 0.9; that for U14C G58U C120U, 0.12.
As to U14C A79G G125U A140G, the self-cleavage was found to be 0.63.
Turning to U14C U15A G35A U62C C66U G75A A107G, the self-cleavage stood at 0.06.
In the case of U14C U39A U96C C99U U115C C128U, the self-cleavage was 0.04.
To U14C U15C A30G A69G belongs 0.
The result for U14C A64G G88A A117U reads 0.09; that for U14C U39C U45A U143C, 1.58.
With U14C A64G U85A, the self-cleavage came out at 0.05.
In the case of U14C G34U A138G, the self-cleavage was 1.61.
For the variant U14C U39C U52C A69G A138U, the self-cleavage amounted to 0.
With U14C U23C U26C A65U A141G, the self-cleavage was found to be 0.59.
Turning to U14C A77G U85C U132C, the self-cleavage came out at 0.31.
To U14C A69U U96C belongs 0.09; to U14C A78G A79G C118U A129U, 0.28.
In the case of U14C U23C A79U, the self-cleavage was 2.13.
Turning to U14C G35U U39C U46A U132C, the self-cleavage was determined as 0.63.
Consider U14C U20C A22U C56U U87C, for which the self-cleavage was 0.27.
Consider U14C A77G A140G A141G, for which the self-cleavage is 0.97.
Consider U14C G75A A141G, for which the self-cleavage worked out at 0.86.
U14C G36A U73C: the self-cleavage amounted to 1.15.
The result for U14C U20A U62C A94U U109A G144A reads 0.15; that for U14C U29C U73A, 1.04.
As to U14C U23C U46C U112C U119C, the self-cleavage was 1.15.
Regarding U14C A94G A138G, the self-cleavage turned out to be 0.61.
Take U14C A59U A64G A77G U134A G135A: the self-cleavage came out at 0.
With U14C A94U A124G U143G, the self-cleavage was found to be 0.22.
Take U14C U39C A78G A142G: the self-cleavage came to 1.17.
As to U14C U45G A64G A141G, the self-cleavage came to 0.
Regarding U14C C84U U112C, the self-cleavage was found to be 0.1.
Regarding U14C C71A A78G C98A, the self-cleavage worked out at 0.03.
For U14C U20C U102C A107G, the self-cleavage stood at 1.31.
Regarding U14C G36A A78C G80C A94C U104C, the self-cleavage stood at 0.09.
On to U14C A78U U132A, for which the self-cleavage was found to be 1.23.
For U14C U45C A129G, the self-cleavage stood at 2.04.
To U14C C37A A57G A92U U112C belongs 0.43.
Consider U14C C128G U134C, for which the self-cleavage stood at 1.08.
Take U14C U26C A138G U143A: the self-cleavage was found to be 1.53.
With U14C G60A A79G U85C U119C A136G, the self-cleavage worked out at 0.09.
Take U14C G88A G114A: the self-cleavage is 0.08.
The result for U14C U39C A124U reads 0.
Consider U14C A129U A142G, for which the self-cleavage amounted to 1.29.
For the variant U14C A69G G74A U102C, the self-cleavage was determined as 0.75.
To U14C A67U C131U belongs 0.18; to U14C A64G A69G, 0; to U14C C28U U104A U112C U130C, 1.15.
For U14C U45C U134A, the self-cleavage stood at 0.84.
Turning to U14C G53C U115A, the self-cleavage amounted to 1.42.
With U14C U29C U62C U119C A142G, the self-cleavage came to 0.
For the variant U14C A64G U73A, the self-cleavage is 0.49.
In the case of U14C C61U A67G G86A, the self-cleavage came to 0.02.
In the case of U14C A65G U81A A142G, the self-cleavage was determined as 0.47.
As for U14C C38U A140G, the self-cleavage was 1.09.
As to U14C U39C U46A, the self-cleavage worked out at 1.53.
Take U14C U39C U46C: the self-cleavage is 2.
Consider U14C U45C U112C, for which the self-cleavage was determined as 1.63.
On to U14C A94G C101U, for which the self-cleavage turned out to be 0.45.
U14C U39C A43U: the self-cleavage worked out at 1.02.
The result for U14C A107U A142G reads 0.8.
The result for U14C A64G C76U G80A reads 0.42.
To U14C A65G U87C belongs 0.3; to U14C G54A G83C U96C, 0.05.
Turning to U14C C38A C76U A121G A136C, the self-cleavage came out at 2.14.
For U14C G53A A77U U109C U115C, the self-cleavage came out at 1.25.
Turning to U14C G34A A57U A79G A129U, the self-cleavage came to 0.04.
Take U14C A64C U87C A142G U143A: the self-cleavage was 0.
In the case of U14C U45C A121G, the self-cleavage is 1.27.
For U14C A124G U134C, the self-cleavage amounted to 1.31.
As to U14C A59G C131G, the self-cleavage is 0.36.
With U14C A79G C90U, the self-cleavage was determined as 0.07.
Take U14C G58U U102A A107G A141G: the self-cleavage is 0.1.
For U14C U20C A78G A92G, the self-cleavage is 0.2.
To U14C G32A U134C belongs 1.56; to U14C U15C U39C U46A A64U G70A, 0.07.
For the variant U14C C38U U47A A69G, the self-cleavage worked out at 0.49.
With U14C U39C U87A U143A, the self-cleavage was 0.2.
Regarding U14C U20A A43G, the self-cleavage amounted to 1.
U14C G54A A64U U102C: the self-cleavage turned out to be 0.2.
For the variant U14C U26C A69U U102C, the self-cleavage is 0.37.
The result for U14C A79U U91C U109C reads 1.25.
